Reference: US20260132196A1 (Amgen, published 2026)

T1: HUMAN CLDN-6 (UniProt P56747) (human, UniProt P56747 1-220)
T1 sequence: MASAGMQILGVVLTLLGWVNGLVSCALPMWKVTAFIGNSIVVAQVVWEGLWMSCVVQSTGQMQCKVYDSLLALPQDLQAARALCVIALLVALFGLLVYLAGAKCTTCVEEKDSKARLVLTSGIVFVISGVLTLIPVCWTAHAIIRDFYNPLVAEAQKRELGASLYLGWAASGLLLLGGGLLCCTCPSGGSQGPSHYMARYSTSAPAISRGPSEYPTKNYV

B1: S3N/HLE BITE I2E (SEQ ID NO: 77) (bispecific antibody)
chain: QVQLVQSGAEVKKPGASVKVSCKASGYTFTGYYVHWVRQAPGQCLEWMGWINPNSGATNYAQKFQGRVTMTRDTSISTAYMELSRLRSVDTAVYYCVRDALIVEAPATRDYYYYGMDVWGQGTTVTVSSGGGGSGGGGSGGGGSEIVLTQSPGTLSLSPGERATLSCRASQSVRSTYLAWYQQKPGQAPRLLISGASSRATGIPDRFSGSGSGTDFTLTISRLEPEDFAVYYCQQYQTSPITFGCGTRLEIKSGGGGSEVQLVESGGGLVQPGGSLKLSCAASGFTFNKYAINWVRQAPGKGLEWVARIRSKYNNYATYYADAVKDRFTISRDDSKNTVYLQMNNLKTEDTAVYYCARAGNFGSSYISYWAYWGQGTLVTVSSGGGGSGGGGSGGGGSQTVVTQEPSLTVSPGGTVTIT[sequence of about 80 residues not given]FGSGTKLTVLGGGG[sequence of human IgG1 Fc with R292C N297G V302C (EU numbers) not given]GGGGSGGGGSGGGGSGGGGSGGGGSGGGGS[sequence of human IgG1 Fc with R292C N297G V302C (EU numbers) not given]
B2: L4B/HLE BITE I2E (SEQ ID NO: 49) (bispecific antibody)
chain: QVQLVQSGAEVKKPGASVKVSCKASGYTFTGYYVHWVRQAPGQCLEWMGWINPNSGATNYAQKFQGRVTMTRDTSISTAYMELSRLRSDDTAVYYCVRDRLIVEAPATRDYYYYGMDVWGQGTTVTVSSGGGGSGGGGSGGGGSEIVLTQSPGTLSLSPGERATLSCRASQSVRSTYLAWYQQKPGQAPRLLIYGASSRATGIPDRFSGSGSGTDFTLTISRLEPEDFAVYYCQQYDASPITFGCGTRLEIKSGGGGSEVQLVESGGGLVQPGGSLKLSCAASGFTFNKYAINWVRQAPGKGLEWVARIRSKYNNYATYYADAVKDRFTISRDDSKNTVYLQMNNLKTEDTAVYYCARAGNFGSSYISYWAYWGQGTLVTVSSGGGGSGGGGSGGGGSQTVVTQEPSLTVSPGGTVTIT[sequence of about 80 residues not given]FGSGTKLTVLGGGG[sequence of human IgG1 Fc with R292C N297G V302C (EU numbers) not given]GGGGSGGGGSGGGGSGGGGSGGGGSGGGGS[sequence of human IgG1 Fc with R292C N297G V302C (EU numbers) not given]
B3: X3S/HLE BITE I2E (SEQ ID NO: 35) (bispecific antibody)
chain: QVQLVQSGAEVKKPGASVKVSCKASGYTFTGYYVHWVRQAPGQCLEWMGWINPNSGATNYAQKFQGRVTMTRDTSISTAYMELSRLRSDDTAVYYCVRDALIVEAPATRDYYYYGMDVWGQGTTVTVSSGGGGSGGGGSGGGGSEIVLTQSPGTLSLSPGERATLSCRASQSVRSTYLAWYQQKPGQAPRLLIYGASSRATGIPDRFSGSGSGTDFTLTISRLEPEDFAVYYCQQYDASPITFGCGTRLEIKSGGGGSEVQLVESGGGLVQPGGSLKLSCAASGFTFNKYAINWVRQAPGKGLEWVARIRSKYNNYATYYADAVKDRFTISRDDSKNTVYLQMNNLKTEDTAVYYCARAGNFGSSYISYWAYWGQGTLVTVSSGGGGSGGGGSGGGGSQTVVTQEPSLTVSPGGTVTIT[sequence of about 80 residues not given]FGSGTKLTVLGGGG[sequence of human IgG1 Fc with R292C N297G V302C (EU numbers) not given]GGGGSGGGGSGGGGSGGGGSGGGGSGGGGS[sequence of human IgG1 Fc with R292C N297G V302C (EU numbers) not given]

Molecular target: T1, HUMAN CLDN-6 (UniProt P56747)
Assay: cell-based or functional assay

Row | Binder | TDCC EC50, OAW28 cells | TDCC EC50, OVCAR-3 cells | TDCC EC50, PA-1 cells | TDCC EC50, LCLC97TM1 cells | TDCC EC50, NCI-H1435 cells
1 | B1 | 0.0352 nM | 0.0257 nM | 0.0031 nM |  | 
2 | B2 | 0.0446 nM | 0.0194 nM | 0.0034 nM | 0.0107 nM | 0.0116 nM
3 | B3 | 0.0301 nM | 0.0191 nM | 0.0028 nM | 0.0056 nM | 0.0059 nM
